Data on 92 compounds can be found in PubChem BioAssay AID485344 (National Center for Advancing Translational Sciences (NCATS), 2010).

SMILES strings stand for the structures. About 6,900 (2%) of roughly 340,000 compounds were called active. Rule as the data show it: active = inhibition above about 30%; inactive = below that, where a call was filed. This is a selection; strong and weak results do not stand in their true shares. The source gives no active or inactive call for entries shown without one.

This assay addresses D(2) dopamine receptor (Homo sapiens) (UniProt P14416). Briefly: HTS Assay for Allosteric Antagonists of the Human D2 Dopamine Receptor: Primary Screen for Antagonists. Also: 0% is about no effect. To be noted: HEK293 TREx D2 cells, calcium flux, dopamine EC80; at 10 µM; stronger effect = higher value. Summed up: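 Dopamine at EC80 is the agonist stimulus; test compounds precede it by 180 s. Calcium flux read kinetically in a force-coupled, inducible HEK293 T-REx D2 cell line.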
UniProt P14416, sequence (P14416 whole entry, looked up): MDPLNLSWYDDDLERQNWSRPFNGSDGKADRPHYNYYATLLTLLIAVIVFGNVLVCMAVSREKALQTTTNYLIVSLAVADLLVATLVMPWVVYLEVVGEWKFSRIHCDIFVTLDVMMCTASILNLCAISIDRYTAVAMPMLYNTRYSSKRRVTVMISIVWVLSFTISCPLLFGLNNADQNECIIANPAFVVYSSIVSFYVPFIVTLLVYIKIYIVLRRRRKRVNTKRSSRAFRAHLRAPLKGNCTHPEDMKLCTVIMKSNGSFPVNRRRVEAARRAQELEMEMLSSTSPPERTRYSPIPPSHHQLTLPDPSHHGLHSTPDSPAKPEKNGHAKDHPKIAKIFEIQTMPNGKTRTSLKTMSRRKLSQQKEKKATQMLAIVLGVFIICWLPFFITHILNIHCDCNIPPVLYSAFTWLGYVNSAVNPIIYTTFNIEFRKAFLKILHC
In general terms: Calcium assays in cells follow changes in intracellular calcium, usually with a dye or a luminescent sensor.
Consider `CCOC(=O)N1CCc2c(sc3c2c(=O)n(-c2ccccc2)c(=O)n3CC(=O)Nc2ccc(OC)cc2OC)C1`, for which the inhibition (as a rule, the change of the read-out against control, counted positive when it falls) was -7.84%. With `CCOc1ccc(OCC)c(NC(=O)c2cc(S(=O)(=O)N3CCCC3)cn2C)c1` the figure was -1.57%; with `CCOc1ccc(NC(=O)CCc2c(C)nc3nc(C)nn3c2C)cc1`, -0.978%. In the case of `COC(=O)C(CCSC)NC(=O)C1CCN(c2ncnc3c2nc2n3CCCCC2)CC1` (configuration not stated) it was 6.78%; in that of `Fc1ccc(-n2ncc3c(NC4CCCCCC4)ncnc32)cc1`, 4.73%. In the case of `CCOC(=O)c1c(NC(=O)CCCOc2ccccc2C)sc2c1CCC(C)C2` (configuration not stated) it was -3.33%; in that of `CCNC(=O)CC1C(=O)N(c2ccc(F)cc2)C(=O)N1CCOC` (configuration not stated), -12.5%.

Turning to `COc1ccccc1CNC(=O)c1ccc(Cn2c(SCc3ccccc3)nc3cccnc32)cc1`, the inhibition was determined as 27.9%. With `CCOc1ccc(C(=O)N2CCC(c3nnc(-c4ccccc4OC)o3)CC2)cc1` the figure was 2.43%; with `CC1OC(OC2C(OC3C(O[C@H]4CC[C@]5(C)C6C=C[C@]78OC[C@@]9(CC[C@@H](C)[C@H](C)C97)[C@H](O)C[C@@]8(C)[C@]6(C)CC[C@H]5C4(C)C)OC(C)C(O)C3O)OC(CO)C(O)C2O)C(O)C(O)C1O` (some centres not stated), active: 31.6%; with `O=C(CCc1ccccc1)NCc1nc2cccnc2n1Cc1ccc(F)cc1`, -8.82%.

`N#Cc1ccccc1CN1C(=O)c2ccccc2Sc2ccc(C(=O)OCc3ccco3)cc21`: the inhibition is -23.6%. In the case of `CCOc1ccc(NC(=O)C(CC)n2c(=O)c(-c3ccccc3NC(C)=O)nc3ccccc32)cc1` (configuration not stated) it was 8.74%; in that of `Cc1ccc(CNC(=O)Cn2cc(S(=O)(=O)Cc3ccccc3Cl)c3ccccc32)cc1`, -5.85%. In the case of `COc1ccccc1OCCSc1nc(-c2ccc(C(C)(C)C)cc2)nc2cc(=O)[nH]n12` it was -0.661%; in that of `O=C(CCOc1ccccc1)N(Cc1cccnc1)c1nc2c(F)cc(F)cc2s1`, -15.8%. With `Nc1nnc(SCC(=O)Nc2ccc(Cl)cc2)s1` the figure was -14.8%; with `COc1ccc(CNC(=O)c2cnc3sc(N4CCOCC4)nn3c2=O)cc1`, 15.8%; with `COc1cc(OC)c(NC(=O)N2CCSc3ccccc32)cc1Cl`, 12%. As to `COc1ccc(C(=O)Nc2cc3c(cc2C(=O)c2ccccc2Cl)OCCO3)cc1`, the inhibition was found to be 3.03%. `Cc1cc(Cl)ccc1NC(=O)c1cccc(NC(=O)N2CCSc3ncccc32)c1`: the inhibition was -7.34%. With `O=C(CSC1=Nc2ccccc2C2=NC(CCC(=O)NC3CCCCC3)C(=O)N12)Nc1cccc(C(F)(F)F)c1` (configuration not stated) the figure was 3.16%. With `CCc1ccccc1N1CC(c2nc3ccccc3n2CCCOc2ccc(Cl)cc2)CC1=O` (configuration not stated) the figure was -1.64%. Turning to `COc1cc(OC)c(NC(=O)c2csc3c2CCC(C)C3)cc1Cl` (configuration not stated), the inhibition is -0.793%. With `CCOc1ccccc1NC(=O)Cn1c(=O)n(CCC(=O)NCc2ccc3c(c2)OCO3)c(=O)c2ccccc21` the figure was -6.74%. Regarding `COc1ccccc1CNC(=O)c1cc2cc3ccc(Cl)cc3nc2o1`, the inhibition is -5.58%. In the case of `COc1ccccc1N1CCN(c2ccc(NC(=O)c3ccc(C)cc3)cc2C(=O)O)CC1` it was 17.8%. In the case of `Cc1c(CNC2CCCCC2)c(C(=O)O)c(C)n1Cc1c(F)cccc1Cl` it was 2.41%; in that of `Cc1ccc(NC(=O)CCCn2c(=O)c3cccn3c3ccccc32)c(Cl)c1`, -2.37%. In the case of `Cc1cc2oc(C(=O)Nc3ccc(S(=O)(=O)N(C)Cc4ccccc4)cc3)cc(=O)c2cc1C` it was -9.79%. `CC(C)CC(=O)Nc1nnc(S(=O)(=O)N(CC(C)C)c2ccccc2)s1`: the inhibition is -0.265%. Regarding `Cc1ccc(CNC(=O)CCC(=O)N2CC3CCCN3c3ccccc32)cc1` (configuration not stated), the inhibition came to 24.5%. In the case of `c1ccc(OCCN2CCN(C(c3ccccc3)c3ccccc3)CC2)cc1` it was active: 46%; in that of `Cn1c(=O)c2c(ncn2CC2OCCO2)n(C)c1=O`, active: 32%; in that of `O=C(Nc1ccc2oc(-c3cc(Br)ccc3Cl)nc2c1)c1cc2ccccc2o1`, 8.41%. With `Cc1ccc(NC(=O)CN(C)C(=O)CSc2ncc(C(F)(F)F)cc2Cl)cc1` the figure was active: 93%. With `COc1cc(-c2cc3n(C)c(C)c(CCC(=O)O)c(=O)n3n2)cc(OC)c1OC` the figure was -3.33%.

Take `CCCn1c(CN2CCN(c3ccc(OC)cc3)CC2)nc2c1c(=O)[nH]c(=O)n2C`: the inhibition was -12.5%.

For `O=S(=O)(Nc1cccc(-n2cnnn2)c1)c1cnc(Cl)c(Cl)c1`, the inhibition is active: 34.6%. In the case of `Cc1cccc(OCc2nc(CC(=O)Nc3ccc(C)c(C)c3)cs2)c1` it was -5.56%; in that of `NNC(=O)CNS(=O)(=O)c1ccc([N+](=O)[O-])cc1`, active: 49.1%; in that of `N#Cc1ccc(S(=O)(=O)N2CCC(C(=O)N3CCN(Cc4ccc5c(c4)OCO5)CC3)CC2)cc1`, active: 42.6%. `Cc1ccc(N2CCN(C(=O)C3CCN(S(=O)(=O)c4ccc5c(c4)oc(=O)n5C)CC3)CC2C)cc1` (configuration not stated): the inhibition is -16.4%. In the case of `Cc1cc(C)c(S(=O)(=O)NCCc2cc3ccc(C)c(C)c3[nH]c2=O)c(C)c1` it was 13.8%. With `CC(=O)c1ccc(NC(=O)CCc2c(C)nn(-c3ccc(N4CCOCC4)nn3)c2C)cc1` the figure was 1.61%; with `O=c1c2sc3ccccc3c2n(Cc2cccc(Cl)c2)c(=O)n1Cc1ccco1`, 7.32%. In the case of `Cc1cc(C)cc(-n2c(C)nc3cc(C(=O)O)ccc32)c1` it was -6.32%; in that of `CCOc1ccc(C2=CC(c3cccc(Br)c3)n3c(nc4ccccc43)N2)cc1Cl` (configuration not stated), 13.7%; in that of `Cc1cc(NC(=O)c2cc(-c3cccc(Cl)c3)on2)n(-c2ccccc2)n1`, -16.7%.

`COc1ccc(-c2noc(-c3ccc(NCc4cccnc4)c([N+](=O)[O-])c3)n2)cc1OC`: the inhibition was -15.5%. In the case of `Cc1c(C(=O)N(C)C)sc2c1c(=O)n(-c1ccc(Cl)cc1)c(=O)n2CC(=O)C(C)(C)C` it was 9.09%; in that of `COc1ccc(C(=O)c2c(N)c(C(=O)Nc3cccc(OC)c3)c3ccccn23)cc1`, -0.481%; in that of `Cc1ccc(NC(=O)Cn2nc(N3CCN(c4ccccc4)CC3)ccc2=O)cc1F`, -1.98%. For `COc1ccc(-n2c(=O)c3sc4ccccc4c3n(Cc3ccccc3C)c2=O)cc1OC`, the inhibition came out at 23.4%.

`CCC1CCCCN1S(=O)(=O)c1cc2c3c(c1)CC(=O)N3CCC2` (configuration not stated): the inhibition is -13.4%. With `CCOC(=O)c1c(C)[nH]c(C)c1S(=O)(=O)N1CCC(C(=O)NCc2cccc(OC)c2)CC1`, the inhibition was -2.02%.

In the case of `CCC(C(=O)O)n1ccc2cc(S(=O)(=O)N3CCCCC3)ccc21` (configuration not stated), the inhibition came to 15.7%.

Regarding `CCOc1ccc(NC(=O)Nc2ccc(N(C)C(C)=O)cc2)cc1`, the inhibition is active: 31.6%. With `COC(=O)C1CCN(CCCOc2ccc(CN3CCN(c4ccc([N+](=O)[O-])cc4)CC3)cc2)CC1` the figure was active: 84.1%; with `CCCSc1ncc(Cl)c(C(=O)N(Cc2ccc(Cl)cc2)Cc2ccco2)n1`, 0.05%; with `CCc1ccccc1NC(=O)Cn1c(=O)ccc2cc(S(=O)(=O)N3CCCC3)ccc21`, 6.87%. With `CCOC(=O)N1CCc2c(sc3c2c(=O)n(-c2ccc(CC)cc2)c(=O)n3C)C1` the figure was 3.2%.

Take `COc1ccc(OCc2ccc(-c3nc(C#N)c(N4CCCCC4)o3)o2)cc1`: the inhibition worked out at 4.53%. As to `Cc1ccccc1OCC(=O)N1CCC(c2nc3ccccc3s2)CC1`, the inhibition turned out to be 19.3%.

With `COc1ccc(C2c3c(n(C)c4ccccc34)C(=O)N2CC(=O)Nc2cccc(Cl)c2C)cc1` (configuration not stated), the inhibition is -2.51%.

As to `Cc1cccc(N2CCN(C(=O)c3cnc(N4CCCC4)nc3C)CC2)c1C`, the inhibition was determined as 11.7%.

On to `CCc1ccccc1Nc1sc(C(=O)c2cccc(OC)c2)c(N)c1S(=O)(=O)c1ccccc1`, for which the inhibition was 4.15%. With `Cn1c(=O)oc2cc(S(=O)(=O)NCCN3CCN(c4ccccc4)CC3)ccc21` the figure was active: 65.2%; with `CC1CCCN(C(=O)Cn2ncc3c([nH]c4ccccc43)c2=O)C1` (configuration not stated), 12.7%; with `CCCCOc1ccc(C(=O)NCc2nnnn2-c2ccc(C)c(C)c2)cc1`, 7.8%.

As for `COC(=O)c1c(NC(=O)/C(C#N)=C/c2ccccc2)sc2c1C(C(=O)OC)CC2` (configuration not stated), the inhibition was -0.22%.

Regarding `CCOC(=O)c1c(C)oc2ncnc(Nc3cc(C)cc(C)c3)c12`, the inhibition is -8.65%.

On to `O=C(NCCc1csc2nc(-c3ccccc3F)nn12)C(=O)Nc1cc(F)ccc1F`, for which the inhibition was determined as 3.08%. For the compound `O=C(NCCCN1CCN(c2cccc(Cl)c2)CC1)c1cnn(-c2ccc(F)cc2)c1-n1cccc1`, the inhibition worked out at 6.45%. Turning to `CSCSC1=C(C#N)C(c2ccc(Cl)cc2)C(C(C)=O)=C(C)N1` (configuration not stated), the inhibition was active: 31.6%. In the case of `CCC1=C(c2ccc(C)cc2)S(=O)(=O)N=C1N1CCC(C(=O)NCc2ccc(N(C)C)cc2)CC1` it was -23.4%; in that of `CCN1C(=O)c2ccccc2Sc2ccc(NC(=O)Nc3cccc([N+](=O)[O-])c3C)cc21`, 16%; in that of `COc1ccc(CNC(=O)c2cnn3c(C)c(Cc4c(F)cccc4Cl)c(C)nc23)cc1`, -6.12%. With `COc1ccc(N(C(=O)c2ccc(C(C)(C)C)cc2)S(=O)(=O)c2ccc(Cl)cc2)cc1` the figure was -8.39%; with `CCOc1ccc(-n2c(SCC(=O)Nc3ccc(CC)cc3)nc3c(oc4ccccc43)c2=O)cc1`, -1.17%; with `CCOc1cc(C(=O)Nc2ccc3c(c2)n(C)c(=O)c(=O)n3C)cc(OCC)c1OCC`, -4.14%. With `CCOC(=O)CCc1c(C)nc2cc(-c3cc(OC)cc(OC)c3)[nH]n2c1=O` the figure was 8.59%.

Turning to `O=C(Nc1ccc(OC(F)(F)F)cc1)c1noc2c1CCCC2`, the inhibition was -5.57%. In the case of `O=C1C(=O)c2ccccc2C(O)=C1c1cccc([N+](=O)[O-])c1` it was active: 48.1%.

With `COc1ccc2[nH]c3c(c2c1)CCn1c-3nc2sc(C(=O)Nc3ccccc3)c(C)c2c1=O`, the inhibition was active: 39.2%. With `COC(=O)c1ccc(NC(=O)CC2C(=O)N(c3cccc(OC)c3)C(=O)N2C(C)C)cc1` (configuration not stated) the figure was -11.8%; with `COc1cc(NC(=O)c2cc(-c3cccc(OC)c3)n[nH]2)cc(OC)c1`, 10.4%; with `COc1cccc(C(=O)NC2CC3CCC(C2)N3Cc2ccccc2)c1` (configuration not stated), active: 95.5%.

Consider `COc1cc(NC(=O)c2nnn(CC(=O)Nc3cc(C)ccc3C)c2N)cc(OC)c1`, for which the inhibition was 1.37%. In the case of `CC(C)(C)OC(=O)N1CCC(c2c(C(=O)N3CCN(C(=O)c4ccco4)CC3)cnn2-c2ccc(F)cc2F)CC1` it was -6.91%; in that of `CCCOC(=O)c1c(NC(=O)c2cc3ccccc3c(=O)o2)sc2c1CCC(C)C2` (configuration not stated), -13%. On to `CCOc1ccc(-n2nc3ccc(NC(=O)Cc4ccccc4)cc3n2)cc1`, for which the inhibition is -1.07%.
